From patent US20190359666A1 (ACADEMIA SINICA, published 2019)

Experiments:
[1] = target: T1, IGF-1 (UniProt P05019 part only); test: biotinylated IGF-1 ELISA on Fc-captured chimera, 4 C PBS control (the reference); experiment 3-192
T1 construct: Biotinylated IGF-1 is written as the same molecule; also called biotinylated IGF-1; IGF-1-bio
Experimental: (§1) Plates were coated with goat anti-human Fc antibody, blocked and then incubated with chimera as in the Fc ELISA. Biotinylated IGF-1 (GroPep) or VEGF-Biotin (R&D Systems VEGF biotinylated with sulfo-NHS-LC-biotin as per instructions (Pierce) was added for 2 hours followed by streptavidin-HRP (Jackson Immunoresearch) for 30 minutes. Chromogenic development with tetramethyl benzidine was performed as described above.
(§2) To test the stability of the present chimeras, some purified chimeras (see, Table 4) were incubated with PBS or a conditioned medium from the MCF-7 cell line overnight at 37° C. and PBS overnight at 4° C. The IGF-1 binding and VEGF binding were measured using the biotinylated IGF-1 and VEGF.

[2] = target: T1, IGF-1; test: biotinylated IGF-1 ELISA on Fc-captured chimera, after overnight in PBS at 37 C, against the 4 C PBS control; experiment 3-192
T1 sequence (P05019 49-118 limits assumed): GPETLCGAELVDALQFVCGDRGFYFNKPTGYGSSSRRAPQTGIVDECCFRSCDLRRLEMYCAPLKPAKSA
Experimental: as §1, §2

[3] = target: T1, IGF-1; test: biotinylated IGF-1 ELISA on Fc-captured chimera, after overnight in PBS at 37 C, against the 4 C PBS control; experiment 4-81
Experimental: as §1, §2

[4] = target: T1, IGF-1; test: biotinylated IGF-1 ELISA on Fc-captured chimera, 4 C PBS control (the reference); experiment 4-81
Experimental: as §1, §2

[5] = target: T1, IGF-1; test: biotinylated IGF-1 ELISA on Fc-captured chimera, after overnight in MCF-7 conditioned medium at 37 C, against the 4 C PBS control; experiment 4-81
Experimental: as §1, §2

[6] = target: T1, IGF-1; test: cell-based or functional assay
[7] = target: T1, IGF-1; test: biotinylated IGF-1 ELISA on Fc-captured chimera, after overnight in MCF-7 conditioned medium at 37 C, against the 4 C PBS control; experiment 3-192
Experimental: as §1, §2

[8] = target: T2, bFGF (UniProt P09038 part only, limits assumed); test: Biacore SPR
T2 construct: also called basic fibroblast growth factor
T2 sequence (P09038 143-288 limits assumed): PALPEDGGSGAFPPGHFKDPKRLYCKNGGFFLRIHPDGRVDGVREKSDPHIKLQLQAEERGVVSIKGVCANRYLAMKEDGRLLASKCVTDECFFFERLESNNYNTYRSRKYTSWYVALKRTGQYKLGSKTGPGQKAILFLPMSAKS

B1: IGFBP3-Fc (Fc fusion)
chain: not shown
notes: IGFBP3 fused to IgG1 Fc; also called native IGFBP3 Fc dimer
- IGF-1 binding remaining over controls [1]: 100%
- IGF-1 binding remaining over controls [2]: 41%
- IGF-1 binding remaining over controls [3]: 80%
- IGF-1 binding remaining over controls [4]: 100%
- IGF-1 binding remaining over controls [5]: 28%
- EC50 in inhibiting IGF-1 induced proliferation of hep3B cells [6]: 47 nM
- IGF-1 binding remaining over controls [7]: 24%
- binding result [8]: binds
